According to publication PMC4336329 (PLoS ONE, 2015):
Among all 310,000 compounds or so, about 2,200 (0.71%) showed an effect of 50% or more. The effect is printed as a negative number. This is one part of the list.

target: human ether-à-go-go-related gene (hERG) potassium channel (human, UniProt Q12809); experiment: primary screen, population patch clamp on CHO cells stably expressing hERG
Sequence (Q12809 whole entry, looked up): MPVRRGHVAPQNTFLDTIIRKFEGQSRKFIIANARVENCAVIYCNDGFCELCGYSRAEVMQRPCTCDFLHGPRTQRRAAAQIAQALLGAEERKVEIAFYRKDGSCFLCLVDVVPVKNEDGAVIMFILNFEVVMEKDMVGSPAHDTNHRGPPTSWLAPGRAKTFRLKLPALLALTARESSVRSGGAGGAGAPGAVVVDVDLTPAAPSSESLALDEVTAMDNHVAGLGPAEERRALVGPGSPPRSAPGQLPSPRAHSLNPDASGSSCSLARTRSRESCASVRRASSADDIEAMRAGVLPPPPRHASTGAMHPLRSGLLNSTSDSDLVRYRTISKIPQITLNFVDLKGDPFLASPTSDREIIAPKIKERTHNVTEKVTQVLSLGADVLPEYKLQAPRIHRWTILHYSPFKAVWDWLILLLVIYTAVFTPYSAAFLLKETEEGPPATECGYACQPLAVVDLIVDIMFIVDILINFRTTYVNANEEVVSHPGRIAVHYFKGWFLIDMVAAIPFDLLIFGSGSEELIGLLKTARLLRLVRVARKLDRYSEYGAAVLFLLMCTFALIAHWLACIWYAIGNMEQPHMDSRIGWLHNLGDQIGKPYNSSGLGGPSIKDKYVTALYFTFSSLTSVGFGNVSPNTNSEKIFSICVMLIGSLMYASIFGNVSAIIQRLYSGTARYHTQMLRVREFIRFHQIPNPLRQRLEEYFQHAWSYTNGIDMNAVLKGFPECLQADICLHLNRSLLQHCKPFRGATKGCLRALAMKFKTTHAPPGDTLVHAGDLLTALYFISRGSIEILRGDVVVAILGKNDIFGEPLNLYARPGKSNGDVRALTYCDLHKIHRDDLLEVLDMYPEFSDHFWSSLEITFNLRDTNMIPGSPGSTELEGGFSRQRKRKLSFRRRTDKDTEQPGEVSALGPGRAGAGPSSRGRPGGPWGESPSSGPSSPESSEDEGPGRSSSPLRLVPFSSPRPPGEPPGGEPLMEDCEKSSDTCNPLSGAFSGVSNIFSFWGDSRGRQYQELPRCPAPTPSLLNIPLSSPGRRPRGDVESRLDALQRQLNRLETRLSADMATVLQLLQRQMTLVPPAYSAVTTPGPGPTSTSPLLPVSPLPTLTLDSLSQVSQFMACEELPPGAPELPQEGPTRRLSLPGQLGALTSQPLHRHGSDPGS

SMILES	hERG current change (%, negative = inhibition) at 1uM [%]
COc1ccccc1NC(=O)N1CCCC(C(=O)Nc2cccc(C)c2C)C1 (stereo not drawn)	6.02
O=C(Cn1nc(C(=O)O)c2ccccc2c1=O)Nc1ccccc1C(F)(F)F	-3.12
COC(=O)C(Cc1cnc(Cl)s1)(C(=O)OC)c1ccc([N+](=O)[O-])cc1[N+](=O)[O-]	-12.3
O=C(Nc1cccc(Cl)c1)c1csc(-c2ccccc2)n1	16.3
CC(C)CC(=O)NC(=S)Nc1ccc(S(=O)(=O)Nc2nccs2)cc1	14.8
COc1ccc2ccccc2c1/C=N\NC(=O)c1cccnc1	9.21
CC(Sc1nnc(Cc2cccs2)n1C1CCCCC1)C(N)=O (stereo not drawn)	8.88
N#C/C(=C(/O)COC(=O)c1cccnc1Cl)c1nc2ccccc2[nH]1	17.7
CC(C)CNC(=O)C1c2ccccc2Oc2ccccc21	1.95
CN(C)C(=O)Oc1ccc(-c2nnco2)cc1	8.91
Cc1cccc(NC(=O)NCC(F)(F)F)n1	10.2
O=C(Nc1ccccc1C(=O)N1CCOCC1)C1CC(=O)N(C2CCCC2)C1 (stereo not drawn)	12.4
CCC[N+]12CCC(CC1)C(=C(c1ccccc1)c1ccccc1)C2.[Br-]	3.15
COc1ccc(CN(C(=O)c2ccco2)c2ccc(C)cc2)cc1OC	10.6
COC(=O)C1CC(O)CN1C(=O)Nc1cccc(C(F)(F)F)c1 (stereo not drawn)	13.6
CC(C)N(CCn1cnc2c([nH]c3ccccc32)c1=O)C(C)C	-33.7
CCN1CCN(c2ccc(NC(=O)c3cnccn3)cc2)CC1	2.63
COc1ccc(C2/C=C\CN(C(=O)Nc3ccc(C(F)(F)F)cc3)CC(=O)N2Cc2ccc(F)cc2)cc1 (stereo not drawn)	9.63
CCn1c(CSc2nc(C)cc(C)n2)nnc1SCC(=O)Nc1ccccc1	3.49
CC(=O)c1cccc(NC(=O)CN2C(=O)NC3(CCCCCCC3)C2=O)c1	-1.52
CC(=O)C1=C(c2ccccc2)NC(=O)NC1c1ccccc1OCC(=O)Nc1ccccc1 (stereo not drawn)	4.54
Cn1c(COc2ccccc2)nc2ccccc21	13.1
COc1ccc(-c2cc(C(=O)Nc3c(F)cc(F)cc3Br)no2)cc1	10.8
O=C(COc1ccc2ccccc2c1)Nc1ccc(Br)cc1C(=O)O	0.611
Cc1ccc(C)c(NC(=S)N=Nc2c(O)n(C)c3ccc(S(=O)(=O)N4CCOCC4)cc23)c1	13.2
CN(CC(=O)Nc1cccc(F)c1)C(=O)CNS(=O)(=O)c1ccc(N(C)C)c([N+](=O)[O-])c1	9.49
COC(=O)c1ccc2c(=O)n(CC3CCCO3)c(SCC(=O)Nc3ccccc3OC)nc2c1 (stereo not drawn)	-1.64

SMILES	hERG current change (%, negative = inhibition) at 1uM [%]
COc1ccc(S(=O)(=O)CC2(O)CCN(C(=O)C(C)(C)C)CC2)cc1	12.5
C=CCc1cc(C)ccc1OCCOCCC(C(=O)OCC)C(=O)OCC	6.16
O=C(COc1ccc(Cl)cc1)OCC(=O)c1ccc[nH]1	8.73
COC(=O)c1cc(NC(=O)Cc2ccc(OC)cc2)cc(C(=O)OC)c1	14.7
CN(C)CCCNC1=CC(=O)CC(c2ccccc2)C1 (stereo not drawn)	-1.56
COc1cccc(CC(=O)N2CCCC(CO)(Cc3ccc(F)cc3F)C2)c1 (stereo not drawn)	12.4
CCOC(=O)C1CCN(C(=O)CN(C)S(=O)(=O)c2cc(C)ccc2OC)CC1	-2.85
CC(C)Cc1nnc(NC(=O)CSc2nc(N)cc(=O)[nH]2)s1	5.82
COc1cc2c(c(OC)c1OC)-c1c(cc(OC)c(OC)c1OC)C[C@](C)(O)[C@@H](C)C2	-58.4
Cc1c(C(=O)N2CCN(CCc3ccccn3)CC2)oc2ccc(F)cc12	-61.3
NS(=O)(=O)c1ccc(S(=O)(=O)N2CCN(C3CCCC3)CC2)cc1	14.3
COc1ccc(/C=C/c2c(-c3ccc(OC)cc3)oc3cccnc23)cc1	14.7
Cc1ccc(C)c(NC(=O)CN(C)C(=O)c2cccc(S(=O)(=O)N(C)C)c2)c1	-2.36
CCN(CC)CCNC(=O)C(=O)Nc1cc2c3c(c1)CCN3C(=O)CC2	16.8
NC(=O)C1CCN(CCC(=O)Nc2ccc(Br)cc2)CC1	-16.2
CCN(CC)CCNC(=S)NC(=O)c1cn(-c2ccccc2)nc1-c1ccc(OC)cc1	4.93
COc1cc(OC)cc(-c2cc(N)n(S(=O)(=O)Cc3ccccc3)n2)c1	8.58
O=C(C1=C[C@@H](c2ccc(C(F)(F)F)cc2)C[C@@H](OCCCCO)O1)N1CCOCC1	5.4
Cc1c(NC(=O)CN2C(=O)NC(CCc3ccccc3)C2=O)c(=O)n(-c2ccccc2)n1C (stereo not drawn)	7.98
CN1CCN(C(=O)c2ccc3c(c2)S(=O)(=O)c2ccccc2C3=O)CC1	0.519
CCCCn1c(N)c(N(CCOC)C(=O)c2cccc(S(=O)(=O)N3CCCCCC3)c2)c(=O)[nH]c1=O	12.4
C/C(=N\Nc1ccc(S(N)(=O)=O)cc1[N+](=O)[O-])c1ccccc1O	0.874
O=C(COC(=O)c1ccc2ncsc2c1)Nc1ccc(Cl)cc1	11.9
COc1ccc(C(=O)CCC(=O)Nc2cc(Cl)c(O)c(Cl)c2)cc1	17.7
CCc1ccc(Oc2coc3cc(OC(=O)c4cc5ccccc5oc4=O)ccc3c2=O)cc1	-9.78
CCOC(=O)C(=O)Nc1nnc(COc2ccccc2)s1	1.26
Br.CCN(CC)CCn1c(=N)n(CC(=O)c2ccc(C)cc2)c2ccccc21	4.52
